Laboratory results as given in article PMC6919601, “Identification of Plasmodium dipeptidyl aminopeptidase allosteric inhibitors by high throughput screening” (PLoS ONE, 2019).
Out of some 110,000 compounds screened, about 230 (0.21%) showed an effect of 50% or more. The list shows a part of the results.

target: DPAP1 (Plasmodium falciparum, UniProt Q8IIJ9); test: primary screen, percent inhibition; read by cleavage of a fluorogenic dipeptide substrate; higher = more effect of the substance; set-up: species or system P. falciparum D10 trophozoite lysates; single well
Sequence (Q8IIJ9 whole entry, looked up): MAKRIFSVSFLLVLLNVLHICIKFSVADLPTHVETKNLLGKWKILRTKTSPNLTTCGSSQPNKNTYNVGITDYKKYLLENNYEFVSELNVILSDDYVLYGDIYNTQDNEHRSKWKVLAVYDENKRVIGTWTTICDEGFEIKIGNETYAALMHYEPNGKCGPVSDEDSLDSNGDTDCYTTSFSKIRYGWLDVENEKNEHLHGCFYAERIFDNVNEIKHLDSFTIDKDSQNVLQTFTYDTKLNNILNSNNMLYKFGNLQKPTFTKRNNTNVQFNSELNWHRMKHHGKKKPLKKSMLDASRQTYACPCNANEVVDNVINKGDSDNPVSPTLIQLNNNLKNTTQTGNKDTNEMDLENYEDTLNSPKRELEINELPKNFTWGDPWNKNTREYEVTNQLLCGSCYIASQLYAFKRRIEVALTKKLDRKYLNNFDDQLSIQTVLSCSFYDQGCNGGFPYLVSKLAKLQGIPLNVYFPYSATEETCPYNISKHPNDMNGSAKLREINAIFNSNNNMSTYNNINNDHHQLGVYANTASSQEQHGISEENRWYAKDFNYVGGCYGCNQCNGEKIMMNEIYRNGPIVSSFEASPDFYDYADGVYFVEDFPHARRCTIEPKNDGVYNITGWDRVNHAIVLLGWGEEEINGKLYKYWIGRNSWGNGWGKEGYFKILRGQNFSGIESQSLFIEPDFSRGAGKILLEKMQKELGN
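Also: 30 min substrate incubation versus DMSO and 10 µM JCP410 controls.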

SMILES	% Inhibition @ 10 uM
Cc1coc2c1c(C)cc1oc(=O)c(CC(=O)NCc3ccc4c(c3)OCO4)c(C)c12	4.13%
CCCCn1c(CN2CCC(Cc3ccccc3)CC2)nc2c1c(=O)n(C)c(=O)n2C	-2.29%
Cn1nc(-c2ccccc2F)c2cc(C(=O)Nc3cccnc3Cl)sc21	1.24%
CCCC1=C(C(=O)OCC)C(c2cccc(F)c2)C(C#N)=C(N)O1 (stereo not drawn)	6.18%
CC(C)C[C@H](NC(=O)c1cnc2ccccc2n1)C(=O)NCC#N	-0.778%
O=C(O)CCNc1ccc(Br)cc1C(=O)O	3.06%
O=C(NCCc1ccccc1)c1ccc2nc(N3CCN(Cc4ccccc4)CC3)ccc2n1	-8.08%
COc1ccc(S(=O)(=O)N(C)Cc2ccccc2)cc1	0.526%
CCOC(=O)N1CCC(N2CCCN(C)CC2)CC1	1.43%
N#CCc1ccc(NC(=O)C2CCCCC2)cc1	-14.8%
O=[N+]([O-])c1ccc(CN2CCc3ccccc3C2)cc1	-2.03%
O=C1C(Sc2ccccc2)=C(O)c2cccc3cccc1c23	68.7%
c1ccc(COc2ccc(CNCc3cccs3)cc2)cc1	-2.76%
O=S(=O)(c1cccc2nsnc12)N1CCOCC1	1.24%
CCOc1cc(C(=O)Nc2nc(C)cc(C)n2)cc(OCC)c1OCC	-3.41%
CCc1nn2c(=O)cc(COc3ccc(/C=C4/C(=N)N5C=CSC5=NC4=O)cc3OC)nc2s1	2.54%
CC(C)C[C@H](NC(=O)N(Cc1ccccc1)Cc1ccccc1)C(=O)NCC#N	-1.82%
CCC(C)NC(=O)c1ccc2c(c1)c(C)c(C)n2CC (stereo not drawn)	3.78%
CCCCOc1ccc(NC(=S)N2CCn3c4c(c5cc(C)ccc53)CCCC42)cc1 (stereo not drawn)	-3.5%
C[n+]1cccc(C2CCCCN2C(=O)c2ccccc2)c1 (stereo not drawn)	-2.87%
Cc1ccnc(SCC(=O)Nc2oc(-c3ccccc3)c(-c3ccccc3)c2C#N)n1	5.18%

SMILES	% Inhibition @ 10 uM
C=CCNC(=O)C1CC(c2ccc(OC)cc2)=NO1 (stereo not drawn)	-3.45%
CCCc1cc(O)nc(SCC(=O)NCCc2ccccc2)n1	-0.386%
O=C(c1ccccc1)N1c2ccccc2C=CC1c1cc2ccccc2[nH]1 (stereo not drawn)	0.937%
CC(NC(=O)CCC(=O)N1Cc2ccccc2Oc2ncccc21)C12CC3CC(CC(C3)C1)C2 (stereo not drawn)	2.01%
Cc1cc(=O)n(C(C)C(=O)NCc2ccc3c(c2)OCO3)c2c1c(C)nn2-c1ccccc1 (stereo not drawn)	4.15%
CC(=O)Nc1nnc(-c2ccc(Cn3c(-c4cscn4)nc4ccccc43)cc2)s1	-2.63%
OCCNc1ncnc2oc(-c3ccccc3)c(-c3ccccc3)c12	0.131%
O=C(NCc1ccccc1)C(=O)NCC1OCCc2ccccc21 (stereo not drawn)	-1.52%
CCNc1nc(NCC)n2c(SCC(=O)c3ccccc3)nnc2n1	-1.48%
Cc1cc(-c2ccc(C)c(S(=O)(=O)NCCCN(Cc3ccccc3)C(C)C)c2)on1	2.74%
Cc1ccc(CNC(=O)C2CCC(C/N=c3/c(N4CCOCC4)c(O)c3=O)CC2)cc1 (stereo not drawn)	-2.17%
CCC1CCCN1Cn1cnc2c3cc(OC)ccc3nc-2c1O (stereo not drawn)	-3.52%
CCS(=O)(=O)c1nc(S(=O)(=O)c2ccc(C)cc2)c(NCCC(C)C)s1	-4.04%
O=C(Cn1ccc2cc(S(=O)(=O)N3CCCC3)ccc21)NCCCc1ccccc1	-1.45%
CCOc1ccc(C(=O)N2CCN(c3ccccc3OCC)CC2)cc1	-0.598%
COc1cccc(/C=C(\C#N)c2nn(CCO)c(N)c2C#N)c1OCc1ccccc1Cl	4.95%
COc1ccc2nc(NC(=O)c3nc(S(=O)(=O)Cc4ccc(F)cc4)ncc3Cl)sc2c1	-0.946%
Cc1ccccc1Cn1c(C)c(CNC(C)CCc2ccccc2)c(C(=O)O)c1C (stereo not drawn)	-3.67%
CCN1CCCC1CNc1ncnc2c1cnn2-c1ccc(C)cc1 (stereo not drawn)	0.593%
COc1ccc(/C=C/c2cccc[n+]2C)c(OC)c1OC	3.65%
O=C1NC(NS(=O)(=O)c2ccccc2)(C(F)(F)F)C(=O)N1Cc1ccco1 (stereo not drawn)	3.54%

SMILES	% Inhibition @ 10 uM
Cn1c(=O)[nH]c(=O)c2c1ncn2CC(O)CO (stereo not drawn)	3.74%
CSC1=NC2(CCN(S(=O)(=O)c3ccc(C)cc3)CC2)N=C1c1ccc(Cl)cc1	-2.31%
O=C(c1ccc(NS(=O)(=O)c2cccc(C(F)(F)F)c2)cc1)N1CCCC1	-1.6%
Cc1nc2ncnn2c(C)c1CCC(=O)NCc1ccccc1	-2.25%
CC(C)CC(NC(=O)c1ccc(NC(=O)Nc2cccnc2)cc1)C(=O)NCC#N (stereo not drawn)	-9.15%
C=CCn1c(SCc2ccc(F)cc2)nc2cccnc21	-0.878%
O=C(O)CN1C(=O)c2cc(Cl)c(Cl)cc2C1=O	3.67%
Cc1c(C)n(CC(O)CNCc2ccccc2)c2ccccc12 (stereo not drawn)	-5.06%
CCCN(CCO)Cc1ccc(Br)o1	-0.446%
Cc1cccn2c(=O)c3cc(C#N)c(=O)n(C)c3nc12	2.73%
Cc1nnc(SCc2nc(-c3ccc(Br)cc3)no2)n1-c1ccccc1	2.31%
Cn1cccc1-c1nc2cc(NC(=O)c3ccccc3)ccc2[nH]1	-5.34%
C=CCN1C=CC(=Cc2ccc3ccc(C)cc3[n+]2CC)C=C1	-6.71%
NC(=O)c1c(NC(=O)Cc2ccccc2)sc2c1CCCC2	-8.15%
Cc1csc(NC2c3ccccc3C(=O)N2Cc2ccccc2)n1 (stereo not drawn)	-1.08%
CN1CCCN(Cc2ccc3ccccc3c2)CC1	1.55%
CCOC(=O)c1cc2c(=O)n3ccccc3nc2n(CC(C)C)/c1=N/C(=O)COc1ccccc1	-3.78%
CC(C)(C)c1ccc(C(=O)Nc2cccc(NC(=O)c3cccc4ccccc34)c2)cc1	1.13%
CCC(C(=O)OC)N1CC1C(=O)OC (stereo not drawn)	3.42%
COc1cc(OC)cc(-c2nc3n(n2)C(c2ccc(F)cc2)C2=C(O)CC(C)(C)CC2=N3)c1 (stereo not drawn)	-1.47%
CCOC(=O)c1cnc(NC(=O)CSc2nnc3sc4ccccc4n23)s1	-2.75%
